Sequences with one replicate were seen in a single cluster, so their values are uncertain.
Test system: ATP
Assay: switch fluorescence ratio, 500 uM ATP over buffer (Cy3 cluster intensity, sum of 5 cycles each) (fold (ratio)); higher = stronger signal-on switching upon ATP binding; sequences stand for … in TCGTCGGCAGCGTCAGATGTGTATAAGAGACAGTTTTTTTTTTTTTTTTTTTTTTTTT…TC
Conditions: aptamer strand: ATP DNA aptamer (quencher-CACCTGGGGGAGTATTGCGGAGGAAGG + anchor), 100 nM annealed; ATP concentration: 500 uM; one replicate
How it was run: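 The quencher-labelled ATP aptamer, at 100 nM, was annealed to Cy3-labelled switching-strand clusters on a modified Illumina MiSeq flow-cell. The clusters were imaged in selection buffer, then after 15 min with 500 uM ATP at 22 °C, and this buffer/ATP cycle ran five times with NaOH stripping and re-annealing between runs. Per-cluster fluorescence ratios, summed target-cycle over summed buffer-cycle Cy3 intensity, were averaged per switch-domain sequence. Clusters outside 100-1000 RFU were excluded.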
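Also: ATP exposure 15 min at 22 °C before imaging.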

Sequence	switch fluorescence ratio
AAACCCAGTT	1
CATATCGAGC	0.93
TAACGTTGCC	1.01
GAAAATGGCT	1.06
TCAGCTCAGA	1.03
CGCTTAAGG	0.997
GCCAATGGAT	1.06
ATTAGGAGTG	0.956
CAACGAGCTA	1.1
ATTTGCGTGG	0.95
CTTGCATCTA	1
AAGGGAACCG	1.23
CCGTCTTTTC	1.11
TCTGAAGCAG	3.32
TTGGGCCCAT	1.01
AGAGCCCCTA	1.01
CGGGCATATG	0.995
CGCCCTAATC	1.23
GGGCGGCGGA	0.957
GAGATGACAT	1.02
CTTACCGTG	1.04
ACTTGAGCCT	1.06
AATCAACTGC	0.997
GATTAGTGCA	1.04
GCACACAGGT	1.62

Sequence	switch fluorescence ratio
ACCTTCGTTT	1.11
CAGAAAAGGT	1.09
ACATAGCATT	1.24
ATAGATTAGA	0.981
GGTTTGAGCG	0.983
GGCCCTAATC	1.01
CCGGTCCGGG	1.03
GACCTATTTA	1.03
CCGGTTCTTG	0.982
GTGGGTAACG	0.958
CGTGCCACTA	1
TTCTAGGGGA	0.977
TGTTGGGAAA	0.957
AGTAGAAGGG	1.06
GTGTAAGGGA	0.996
TGCTTAAG	1.03
CTCTTAAAAG	1.01
AGAAACTTGC	1.29
GATTCTTCCA	1.02
TCCGTTATGA	1.14
AGCTAAAAAA	1.01
CGGTATAAGA	1.03
ACTCAGGTCG	1.11
GTTGGTCTG	1.04
TCCCTTGTAC	1.37

Sequence	switch fluorescence ratio
CGACATTGA	0.942
TTCCGATTTT	1.02
GTCAATGTTT	1.02
GACAGCTAAA	1.08
TACAAGTATG	1.04
TCGTTCTACT	0.992
AGGCTACGTA	1.05
CAATTCTTGT	1.01
TCTTTGCCAA	1.03
AGTAGGCCCT	0.99
CTATAAGTAC	1.43
TGGTTAGGA	0.981
TTTTTCGACT	0.977
GACCCTGCA	1.12
CGCGCTGGAA	0.999
TCCTTTGTGC	1.05
ATCACAGGTA	1.06
CCGGGCTTGT	1.06
TATTAACATT	0.974
CCAATCCGGT	0.969
AACCTGTACG	1.16
GGTGGCGCCT	1
TCTGAAGACG	1.07
CCGGTTTACA	1.07
TTACCAAACA	1.06

Sequence	switch fluorescence ratio
CCGAACCCGA	1.55
AAAGTGGCCT	1.07
ACGCCTGGAA	1.05
AACTGCTGTG	1.01
GTACTTTTCC	1.18
CCATTGTCTC	1.08
AGCAGTCTGC	0.957
TTTTATTGC	0.951
ATATACCTCT	0.986
ACACCGTACT	1.47
GCGCGCAAAG	1.01
CTTGTTGTCA	0.973
TTACGTAATT	1.16
TGACACGTA	1.16
TTAGTTACGC	1.01
AAAATAAAC	1.03
TCCGGCGGT	1.76
TGGAGATGGT	0.987
CCCAATCAGT	0.986
CGGCTTTTGC	1.09
GATTATCGAG	1.01
AAGCCCCGCG	0.922
ATGATGTCCG	1.03
TAAAGCATCG	0.988
GTCGGCAGTA	0.942

Source: the supplement of paper PMC10126150
